Data: PubChem BioAssay AID1508621 (National Center for Advancing Translational Sciences (NCATS), 2021)
Inconclusive means that the source gave no clear call. Such entries were picked first, then a sample of the others. Where the call is inconclusive, the potency comes from a doubtful curve fit. Activity calls are given as the source filed them. The call rests on the fitted dose curve; in most records, active means well fitted inhibition curve with a large enough effect; inconclusive means small, poorly fitted or top-dose-only effect; inactive means no such curve, though single readings can be large or run the other way.

Test: Confirmatory qHTS for Identification of Small Molecule Inhibitors of Huntingtin Promoter Activity; further: nearly all actives have a fitted effect of over 65% in size
Settings: HEK293 HTT promoter firefly luciferase reporter, 24 h; series mostly up to 57.5 µM
Method in brief: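 Plated reporter HEK293 cells (24 h) received library compounds at up to 57.5 uM final or 50 uM PTC124, incubated 24 h at 37C; firefly luciferase luminescence was then recorded with Dual-Glo reagent.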
Potency means the concentration at half of the fitted maximal effect; tags describe the fitted curve by direction and shape.

Cc1c(Cl)cccc1-n1ncc(C(=O)Nc2ccc(F)cc2F)c1C1CCN(C(=O)OC(C)(C)C)CC1
Potency: inconclusive: 23.9 µM [inhibitor, single point]

CCN(Cc1ccccc1)S(=O)(=O)c1ccc(N2CCCCS2(=O)=O)cc1
Potency: inconclusive: 30.1 µM [inhibitor, single point]

CCCCN(C)C(=O)C1CCC(CNS(=O)(=O)c2ccc(Cl)cc2)CC1 (stereo not drawn)
Potency: inconclusive: 23.9 µM [inhibitor, partial curve]

CCCOc1ccc(C(=O)Nc2ccc(-c3cc4ccccc4oc3=O)c(C)c2)cc1
Potency: inconclusive: 12 µM [inhibitor, partial curve]

Cc1cccc(NC(=O)Cc2ccc(-n3c(C)nc4cccnc43)cc2)c1C
Potency: inconclusive: 13.5 µM [inhibitor, partial curve]

COc1ccc(N2CCN(C(=O)c3ccc4c(=O)n(CCc5ccc(OC)c(OC)c5)c(=O)[nH]c4c3)CC2)cc1
Potency: active: 12 µM

CCOc1ccc(CN2CCc3nc(N4CCN(c5ccccn5)CC4)ncc3C2)cc1OC
Potency: inconclusive: 6.01 µM [inhibitor, partial curve]

CCCC(=O)Nc1nnc(SCc2cc(=O)c3ccc(C)cc3[nH]2)s1
Potency: inconclusive: 1.51 µM [inhibitor, full curve]

CCCc1cc(N2CCN(c3ccc(OC)cc3)CC2)n2cnnc2n1
Potency: inconclusive: 10.7 µM [inhibitor, partial curve]

O=C(CN1c2ccc(Br)cc2-c2ccccc2S1(=O)=O)N1CCCCC1
Potency: inactive

CCc1nnc(NC(=O)c2nc(S(=O)(=O)Cc3cccc(C)c3)ncc2Cl)s1
Potency: inconclusive: 37.9 µM [inhibitor, single point]

COc1ccc(-c2cccc(NS(=O)(=O)c3cc(C)c(OC)c(C)c3C)c2)nn1
Potency: inconclusive: 13.5 µM [inhibitor, partial curve]

CCc1ccc(CNC(=O)c2cc3cc(S(=O)(=O)N4CCCCC4)ccc3n2C)cc1
Potency: inconclusive: 8.49 µM [inhibitor, partial curve]

Cc1ccc2c(c1)N(C(=O)c1ccc(F)cc1)C(C)(C)CC2(C)c1ccccc1 (stereo not drawn)
Potency: inconclusive: 19 µM [inhibitor, single point]

CCOC(=O)Cc1ccc(NC(=O)N(Cc2ccc(CC)cc2)Cc2cn[nH]c2-c2ccc(OC)cc2)cc1
Potency: inconclusive: 30.1 µM [inhibitor, single point]

COc1ccc(-c2nc(CSCC(=O)N3CCN(c4cc(Cl)ccc4C)CC3)c(C)o2)cc1
Potency: active: 9.53 µM

CC(=O)C1=C(c2ccc(Cl)c(Cl)c2)N(C(C)=O)n2c(C)nnc2S1
Potency: inconclusive: 23.9 µM [inhibitor, single point]

CC(=O)c1ccc(N2CCN(c3ncnc4c3cnn4-c3cc(Cl)ccc3C)CC2)cc1
Potency: active: 7.57 µM

Cc1cccc(N2CCN(C(=O)c3cccc(-n4c(C)nc5cccnc54)c3)CC2)c1C
Potency: inconclusive: 10.7 µM [inhibitor, partial curve]

Cn1c(SCc2ccc(F)cc2)nc2ccc(C(=O)NCc3ccc(F)cc3)cc21
Potency: inconclusive: 26.9 µM [inhibitor, partial curve]

Cc1cccc(NC(=O)c2cnn(-c3ccccc3)c2-n2cccc2)c1C
Potency: inconclusive: 30.1 µM [inhibitor, partial curve]

CCOCc1cc(CN2CCN(c3ccccc3OC)CC2)c(O)c2ncccc12
Potency: inconclusive: 7.57 µM [inhibitor, full curve]

Cc1ccc(Cl)cc1N1CCN(C(=O)Cn2cnc3nc4c(cc3c2=O)CCCC4)CC1
Potency: inconclusive: 33.8 µM [inhibitor, single point]

COc1ccc2nc(N3CCN(C(=O)CS(=O)(=O)c4ccc(C)cc4)CC3)sc2c1
Potency: inactive

CCOc1ccc(NC(=O)c2ccc(F)c(S(=O)(=O)N(CC)Cc3ccccc3)c2)cc1
Potency: inconclusive: 1.2 µM [inhibitor, full curve]

N#CCNC(=O)c1ccc(-c2ccnc(Nc3ccc(N4CCOCC4)cc3)n2)cc1
Potency: inactive

CCOc1ccccc1C(=O)Nc1ccc2nc3c(c(Nc4ccc(OC)c(OC)c4)c2c1)CCCC3
Potency: inconclusive: 26.9 µM [inhibitor, single point]

CCS(=O)(=O)c1ncc(Cl)c(C(=O)NCc2ccc(OC)cc2)n1
Potency: active: 19 µM
